# Reference: the supplement of paper PMC5919970
# Where a name gives a salt, the structure may show the parent alone. The full ranking holds about 2,000 compounds; the median of “fractional viability relative to vehicle” is about 0.91, and the lowest 2% start at about 0.045. Some of the results follow.
# Tested on: TYKNU
# Assay: fractional viability relative to vehicle; TYKNU is a high-grade serous ovarian cancer line; higher = less growth inhibition
# Details: 72 h
# Procedure, shortened: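 TYKNU control cells or lentiCRISPRv2 knockout derivatives were seeded at 500 cells per well into drug-stamped 384-well plates holding a ~2100-compound library at 2 or 10 μM, in duplicate. Cells were grown at 37 °C in 5% CO2 in RPMI 1640 with 10% FBS, and drug treatment lasted 72 h. Viability was read by Cell Titer Glo luminescence. Duplicate treatment wells were averaged and normalised to duplicate control wells from the same plate position.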
# [1] = 2uM, genotype: DNM1L knockout (sgDNM1L #1)
# [2] = 2uM, genotype: sgCTRLA1 (non-targeting control)
# [3] = 10uM, genotype: DNM1L knockout (sgDNM1L #1)
# [4] = 10uM, genotype: sgCTRLA1 (non-targeting control)
Compound,fractional viability [1],fractional viability [2],fractional viability [3],fractional viability [4]
CN(C)c1cccc(-c2c3c(=O)n(-c4ccccc4Cl)[nH]c3cc(=O)n2C)c1,0.822,1.05,0.865,1.07
COC(=O)C1=C(C)NC(C)=C(C(=O)OCCN(C)Cc2ccccc2)C1c1cccc([N+](=O)[O-])c1 (stereo not drawn) [Nicardipine HCl],0.805,1.02,0.564,0.825
Cc1nc(C#Cc2ccnc(Cl)c2)c(C)n1-c1ccc(OC(F)(F)F)cc1,1.11,1.04,0.727,0.974
COCCOc1ccc2c(c1)ncn2-c1ccc2cccc(N3CCC(N)CC3)c2n1,0.892,0.893,0.13,0.139
Cc1cc(Nc2cc(N3CCN(C)CC3)nc(/C=C/c3ccccc3)n2)n[nH]1,0.443,0.472,0.292,0.287
COc1ccc(C2CC(c3ccccc3)=NN2c2ccc(S(N)(=O)=O)cc2)cc1 (stereo not drawn),0.821,0.9,0.649,0.695
Cc1cc(-c2ccc(CC(=O)Nc3ccc(-c4cccnc4)cc3)cc2)ccn1,0.912,1.07,0.816,0.942
COC(=O)C1=C(C)NC(C)=C(C(=O)OCC(C)C)C1c1ccccc1[N+](=O)[O-] (stereo not drawn) [Nisoldipine],0.984,1.04,0.724,0.852
Oc1cc(O)c(Cl)cn1 [Gimeracil],0.993,1.01,0.966,1.14
COc1ccc2cc(OCC3(C(=O)O)CN(C(=O)c4ccc(F)cc4)C3)ccc2c1,0.822,1.12,0.788,1.11
CC1(C)CNc2cc(NC(=O)c3cccnc3NCc3ccncc3)ccc21 [Motesanib Diphosphate (AMG-706)],1.1,0.974,0.969,0.903
CC[C@@H]1/C=C(\C)C[C@H](C)C[C@H](OC)[C@H]2O[C@@](O)(C(=O)C(=O)N3CCCC[C@H]3C(=O)O[C@H](/C(C)=C/[C@@H]3CC[C@@H](O)[C@H](OC)C3)[C@H](C)[C@@H](O)CC1=O)[C@H](C)C[C@@H]2OC [Ascomycin (FK520)],0.544,0.827,0.629,0.607
Cc1ccc(-c2c(-c3nn(C)c4ncnc(N5CC[C@H](N6CCCCC6)C5)c34)cnn2C)cc1,1.02,1.11,0.738,1.18
O=C1OC(CN2CCOCC2)CN1/N=C/c1ccc([N+](=O)[O-])o1 (stereo not drawn) [Furaltadone HCl],1.13,1.31,0.995,1.27
CC(C)(C(=O)NCC(F)(F)C(F)(F)F)C(=O)N[C@@H]1C(=O)Nc2ccccc2-c2ccccc21,0.968,1.17,0.899,1.08
Cc1cc(C)c(CNC(=O)c2cc(-c3ccc(N4CCN(C)CC4)nc3)cc3c2c(C)cn3C(C)C)c(=O)[nH]1,0.782,1.03,0.669,0.609
CN(C)CCNC(=O)c1cccn2c(=O)c3cc4ccccc4cc3nc12,0.389,0.417,0.107,0.0609
CCOc1cc(N)c(Cl)cc1C(=O)NCC1CN(Cc2ccc(F)cc2)CCO1 (stereo not drawn) [Mosapride Citrate],1.01,0.954,0.911,0.912
COC(=O)[C@H](CCSC)NC(=O)c1ccc(NC[C@@H](N)CS)cc1-c1ccccc1,0.719,0.86,0.62,0.852

Compound,fractional viability [1],fractional viability [2],fractional viability [3],fractional viability [4]
Cc1cccc(Nc2ccccc2C(=O)O)c1C [Mefenamic Acid],0.904,1.22,0.702,1.12
CCC(C)n1ncn(-c2ccc(N3CCN(c4ccc(OCC5COC(Cn6cncn6)(c6ccc(Cl)cc6Cl)O5)cc4)CC3)cc2)c1=O (stereo not drawn) [Itraconazole],1.02,1.07,0.761,0.994
C[C@H]1[C@H](OC(=O)CCC(=O)O)O[C@@H]2O[C@@]3(C)CC[C@H]4[C@H](C)CC[C@@H]1[C@@]24OO3 [Artesunate],0.491,0.484,0.294,0.284
C=CCn1c(=O)c2cnc(Nc3ccc(N4CCN(C)CC4)cc3)nc2n1-c1cccc(C(C)(C)O)n1,0.128,0.121,0.202,0.0791
Clc1ccc(C(Cn2ccnc2)OCc2csc3c(Cl)cccc23)c(Cl)c1 (stereo not drawn) [Sertaconazole nitrate],0.866,1.16,0.544,0.858
CC1(C)S[C@@H]2[C@H](NC(=O)Cc3ccccc3)C(=O)N2[C@H]1C(=O)O [Penicillin G Sodium],1.05,1.18,0.704,0.99
CCCCc1nc(Cl)c(CO)n1Cc1ccc(-c2ccccc2-c2nnn[nH]2)cc1 [Losartan Potassium (DuP 753)],0.988,1.07,0.956,1.09
O=C(Nc1cccc2cccnc12)c1ccc(N2C(=O)[C@@H]3[C@H](C2=O)[C@@H]2C=C[C@H]3C2)cc1 [IWR-1-endo],0.84,1.18,0.723,0.945
O=C1CCC(N2C(=O)c3ccccc3C2=O)C(=O)N1 (stereo not drawn) [Thalidomide],1.08,1.04,0.934,1.21
C[C@H](CCC(=O)NCCS(=O)(=O)O)[C@H]1CC[C@H]2[C@@H]3[C@@H](O)C[C@@H]4C[C@H](O)CC[C@]4(C)[C@H]3CC[C@]12C [Sodium Tauroursodeoxycholate (TUDC)],0.814,0.961,0.874,0.803
c1cn2cc(-c3ccc4cn[nH]c4c3)nc(Nc3ccc(N4CCOCC4)cc3)c2n1,0.866,0.977,0.0803,0.34
COc1ccccc1N1CCN(CCCNc2cc(=O)n(C)c(=O)n2C)CC1 [Urapidil HCl],0.945,1.1,0.822,1.02
O=C(Nc1cccc(Nc2ncc(Br)c(NCCc3cnc[nH]3)n2)c1)N1CCCC1,0.738,0.873,0.413,0.448
CN(C)CCCn1cc(C2=C(c3c[nH]c4ccccc34)C(=O)NC2=O)c2ccccc21,0.874,0.991,0.354,0.397
COc1nc(N)nc2c1ncn2[C@@H]1O[C@H](CO)[C@@H](O)[C@@H]1O [Nelarabine],1.18,1.2,1.06,1.16
O=C(/C=C/C=C/c1ccc2c(c1)OCO2)N1CCCCC1 [Piperine],0.998,1.08,0.915,1.03
O=C(O)C(S)=Cc1c[nH]c2ccc(F)cc12,0.732,0.984,0.838,0.827
O=c1c2ccccc2nc2n1CCc1c-2[nH]c2ccccc12 [Rutaecarpine],1.31,1.3,1.11,1.01
CCC(=O)OCC(=O)[C@@]1(OC(=O)CC)[C@@H](C)C[C@H]2[C@@H]3CCC4=CC(=O)C=C[C@]4(C)[C@@]3(Cl)[C@@H](O)C[C@@]21C [Beclomethasone dipropionate],1.11,1.14,0.784,1.05

Compound,fractional viability [1],fractional viability [2],fractional viability [3],fractional viability [4]
Cc1cc(C)nc(SCC(=O)Nc2ncc(Cc3cccc4ccccc34)s2)n1,0.849,0.957,0.785,0.802
O=C1NC(=O)[C@@H](c2cn3c4c(cccc24)CCC3)[C@@H]1c1c[nH]c2ccccc12 [Tivantinib (ARQ 197)],0.226,0.303,0.147,0.125
CCc1cnn2c(NCc3ccc[n+]([O-])c3)cc(N3CCCC[C@H]3CCO)nc12,0.305,0.295,0.298,0.31
C[C@@]1(c2cc(-c3cncnc3)c(F)cc2F)CCSC(N)=N1,1.01,1.06,0.851,1.01
C[C@H]1Oc2cc(cnc2N)-c2c(nn(C)c2C#N)CN(C)C(=O)c2ccc(F)cc21,0.636,0.813,0.659,0.556
CCOC(=O)Nc1ccc(NCc2ccc(F)cc2)nc1N [Flupirtine maleate],0.981,1.12,0.8,1.02
O=C(O)CCCC[C@@H]1SC[C@@H]2NC(=O)N[C@@H]21 [Biotin (Vitamin B7)],1.01,1.16,0.883,1.14
CCOc1cc(C(C)(C)C)ccc1C1=N[C@@](C)(c2ccc(Cl)cc2)[C@@](C)(c2ccc(Cl)cc2)N1C(=O)N1CCN(CCCS(C)(=O)=O)CC1,0.328,0.326,0.245,0.277
O=C(/C=C/N1C[C@H]2C[C@@H]1CN2c1ccccn1)c1ccccc1O,0.753,0.995,0.725,1.03
CC(=O)SCC(Cc1ccccc1)C(=O)NCC(=O)OCc1ccccc1 (stereo not drawn) [Racecadotril],0.977,1.16,0.804,1.13
C[C@H](CCC(=O)O)[C@H]1CC[C@H]2[C@@H]3CC[C@@H]4C[C@H](O)CC[C@]4(C)[C@H]3CC[C@]12C [Lithocholic acid],1.08,1.14,0.879,1.06
Cn1c(Nc2ccc(C(F)(F)F)cc2)nc2cc(Oc3ccnc(-c4ncc(C(F)(F)F)[nH]4)c3)ccc21,0.345,0.325,0.292,0.271
COC(=O)C1=C(C)NC(C)=C(C(=O)OC(C)C)C1c1cccc2nonc12 (stereo not drawn) [Isradipine],0.992,1.11,0.775,0.961
CC(=O)OCC[N+](C)(C)C [Acetylcholine Chloride],0.908,0.998,0.907,1.05
CC1(C)CCC2=C(O1)c1ccccc1C(=O)C2=O [Beta-Lapachone],0.128,0.0912,0.0219,0.023
S=C(NCc1ccc2c(c1)OCO2)N1CCN(c2ncnc3c2oc2ccccc23)CC1 [Amuvatinib (MP-470)],0.884,0.774,0.554,0.314
OCCN1C[C@H](O)[C@@H](O)[C@H](O)[C@H]1CO [Miglitol],0.951,1.15,0.776,0.983
CC(C)C(=O)Nc1ccc([N+](=O)[O-])c(C(F)(F)F)c1 [Flutamide],0.954,1.15,0.769,0.968
Cn1cnc([N+](=O)[O-])c1Sc1ncnc2[nH]cnc12 [Azathioprine],1.07,0.812,1.12,0.784
